# Source: the supplement of paper PMC12217912
# The other results are listed elsewhere or left out. The full chains were built here from the parent and the listed change. Values near 0.05 are background.
# B1: TEV protease; numbered along this chain (parent)
# chain: MGESLFKGPRDYNPISSSICHLTNESDGHTTSLYGIGFGPFIITNKHLFRRNNGTLVVQSLHGVFKVKDTTTLQQHLVDGRDMIIIRMPKDFPPFPQKLKFREPQREERICLVTTNFQTKSMSSMVSDTSCTFPSGDGIFWKHWIQTKDGQCGSPLVSTRDGFIVGIHSASNFTNTNNYFTSVPKNFMELLTNQEAQQWVSGWRLNADSVLWGGHKVFMVKPEEPFQPVKEATQL
# Variants of: B1
# Experiment: raw area under fraction-flipped curve 0-4 h after induction (AUC4h, not background-subtracted), DNA-recorder readout of cleavage of the substrate (dimensionless); higher = more cleavage of the substrate by the protease variant
# Conditions: temperature: 34 °C; time window: 0-4 h after rhamnose induction
# Experimental: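 In vivo DNA recorder in E. coli TOP10(DE3) ΔrhaA at 34 °C. Each TEVp single-site mutant (parent TEVp 0) is paired with a single-site variant of the 7-mer TEVs (canonical ENLYFQ|S). The substrate sits between flexible linkers in a Bxb1-sfGFP-TEVs-SsrA fusion, so cleavage stabilises Bxb1 and speeds flipping of a recombination array, read by NGS. The value is the raw area under the fraction-flipped curve over 0-4 h after rhamnose induction (AUC4h), with ≥20 reads per time point. It is not background-subtracted; inactive controls average about 0.047.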
# 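Note: Bxb1 expression induced with 0.2% (w/v) L-rhamnose at OD600 near 0.5, cultures sampled hourly, flipped fraction per protease–substrate barcode pair counted by paired-end Illumina sequencing.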
Variant,area with substrate ENLAFQS,area with substrate ENLCFQS,area with substrate ENLDFQS,area with substrate ENLEFQS,area with substrate ENLFFQS,area with substrate ENLGFQS,area with substrate ENLHFQS,area with substrate ENLIFQS,area with substrate ENLNFQS,area with substrate ENLPFQS,area with substrate ENLRFQS,area with substrate ENLTFQS,area with substrate ENLKFQS,area with substrate ENLQFQS,area with substrate ENLSFQS,area with substrate ENLWFQS,area with substrate ENLLFQS,area with substrate ENLMFQS,area with substrate ENLVFQS
MGESLFKGPRDYNPISSSICHLTNESDGHTTSLYGIGFGPFIITNKHLFRRNNGTLVVQSLHGVFKVADTTTLQQHLVDGRDMIIIRMPKDFPPFPQKLKFREPQREERICLVTTNFQTKSMSSMVSDTSCTFPSGDGIFWKHWIQTKDGQCGSPLVSTRDGFIVGIHSASNFTNTNNYFTSVPKNFMELLTNQEAQQWVSGWRLNADSVLWGGHKVFMVKPEEPFQPVKEATQL [K68A],0.0684,0.0667,0.0704,0.0633,0.0898,0.0487,0.0635,0.0416,0.0587,0.0626,0.074,0.0604,,,,,,,
MGESLFKGPRDYNPISSSICHLTNESDGHTTSLYGIGFGPFIITNKHLFRRNNGTLVVQSLHGVFKVKSTTTLQQHLVDGRDMIIIRMPKDFPPFPQKLKFREPQREERICLVTTNFQTKSMSSMVSDTSCTFPSGDGIFWKHWIQTKDGQCGSPLVSTRDGFIVGIHSASNFTNTNNYFTSVPKNFMELLTNQEAQQWVSGWRLNADSVLWGGHKVFMVKPEEPFQPVKEATQL [D69S],0.0599,0.0625,0.0781,0.0627,0.135,0.0684,0.072,0.0821,,0.0679,0.0753,0.0712,0.0744,0.064,0.0509,0.0674,,,
MGESLFKGPRDYNPISSSICHLTNESDGHTTSLYGIGFGPFIITNKHLFRRNNGTLNVQSLHGVFKVKDTTTLQQHLVDGRDMIIIRMPKDFPPFPQKLKFREPQREERICLVTTNFQTKSMSSMVSDTSCTFPSGDGIFWKHWIQTKDGQCGSPLVSTRDGFIVGIHSASNFTNTNNYFTSVPKNFMELLTNQEAQQWVSGWRLNADSVLWGGHKVFMVKPEEPFQPVKEATQL [V57N],0.0709,0.0668,0.0648,0.0667,0.0867,,0.0631,0.0951,0.0708,0.0613,0.0667,0.0814,,,0.033,,0.0792,,
MGESLFKGPRDYNPISSSICHLTNESDGHTTSLYGIGFGPFIITNKHLFRRNNGTLSVQSLHGVFKVKDTTTLQQHLVDGRDMIIIRMPKDFPPFPQKLKFREPQREERICLVTTNFQTKSMSSMVSDTSCTFPSGDGIFWKHWIQTKDGQCGSPLVSTRDGFIVGIHSASNFTNTNNYFTSVPKNFMELLTNQEAQQWVSGWRLNADSVLWGGHKVFMVKPEEPFQPVKEATQL [V57S],0.0536,0.0648,0.0614,,0.0722,,0.0746,0.0865,0.0522,,0.0676,,0.0844,0.0692,0.0396,0.0558,,0.0683,
MGESLFKGPRDYNPISSSICHLTNESDGHTTSLYGIGFGPFIITNKHLFRRNNGTLVVQSLHGVNKVKDTTTLQQHLVDGRDMIIIRMPKDFPPFPQKLKFREPQREERICLVTTNFQTKSMSSMVSDTSCTFPSGDGIFWKHWIQTKDGQCGSPLVSTRDGFIVGIHSASNFTNTNNYFTSVPKNFMELLTNQEAQQWVSGWRLNADSVLWGGHKVFMVKPEEPFQPVKEATQL [F65N],0.0433,0.064,0.0486,,0.0763,,0.0472,0.0769,0.0688,0.0503,0.0734,,0.0762,0.0565,,0.055,0.0793,,
MGESLFKGPRDYNPISSSICHLTNESDGHTTSLYGIGFGPFIITNKHLFRRNNGTLVVQSLIGVFKVKDTTTLQQHLVDGRDMIIIRMPKDFPPFPQKLKFREPQREERICLVTTNFQTKSMSSMVSDTSCTFPSGDGIFWKHWIQTKDGQCGSPLVSTRDGFIVGIHSASNFTNTNNYFTSVPKNFMELLTNQEAQQWVSGWRLNADSVLWGGHKVFMVKPEEPFQPVKEATQL [H62I],0.0404,0.0748,0.0342,0.061,0.131,,0.0605,0.106,0.0437,0.0698,,,0.0662,,,0.0666,,,
MGESLFKGPRDYNPISSSICHLTNESDGHTTSLYGIGFGPFIITNKHLFRRNNGTLVVQSLYGVFKVKDTTTLQQHLVDGRDMIIIRMPKDFPPFPQKLKFREPQREERICLVTTNFQTKSMSSMVSDTSCTFPSGDGIFWKHWIQTKDGQCGSPLVSTRDGFIVGIHSASNFTNTNNYFTSVPKNFMELLTNQEAQQWVSGWRLNADSVLWGGHKVFMVKPEEPFQPVKEATQL [H62Y],0.089,,0.0681,0.0499,0.0998,0.0586,,0.093,0.0898,0.0563,0.0741,,0.0683,,0.0726,0.0404,0.0707,0.0843,0.0805
MGESLFKGPRDYNPISSSICHLTNESDGHTTSLYGIGFGPFIITNKHLFRRNNGTLVVQSLHGVFKWKDTTTLQQHLVDGRDMIIIRMPKDFPPFPQKLKFREPQREERICLVTTNFQTKSMSSMVSDTSCTFPSGDGIFWKHWIQTKDGQCGSPLVSTRDGFIVGIHSASNFTNTNNYFTSVPKNFMELLTNQEAQQWVSGWRLNADSVLWGGHKVFMVKPEEPFQPVKEATQL [V67W],0.0462,0.0768,0.0537,,0.074,0.0694,,0.0771,0.0585,,,,0.0651,0.0631,0.0708,,0.0681,0.0668,
MGESLFKGPRDYNPISSSICHLTNESDGHTTSLYGIGFGPFIITNKHLFRRNNGTLVVQSLHGVFKAKDTTTLQQHLVDGRDMIIIRMPKDFPPFPQKLKFREPQREERICLVTTNFQTKSMSSMVSDTSCTFPSGDGIFWKHWIQTKDGQCGSPLVSTRDGFIVGIHSASNFTNTNNYFTSVPKNFMELLTNQEAQQWVSGWRLNADSVLWGGHKVFMVKPEEPFQPVKEATQL [V67A],0.0679,,0.0535,,0.0968,0.0657,0.0929,0.0785,0.063,0.0653,0.0663,0.0745,0.08,0.0618,,0.0633,0.0768,,0.0739
